From PubChem BioAssay AID1745845 (National Center for Advancing Translational Sciences (NCATS), 2022)
“And” between values parts separate entries of the source, which are not always exact repeats. Equal values may be shown once. About 2,600 (0.72%) of roughly 360,000 compounds were called active. Inconclusive results, whose numbers are uncertain, are shown with a selection of clear calls. Calls come from the whole dose curve; as a rule, active = well fitted inhibition curve with a large enough effect; inconclusive = small, poorly fitted or top-dose-only effect; inactive = no such curve, though single readings can be large or run the other way. A potency beside an inconclusive call is a rough fit, not a confirmed value. The source holds several records for some structures; these can differ, active in one and inactive in another.

Assay: Primary qHTS for Inhibitors of ATXN expression; note: nearly all actives have a fitted effect of over 55% in size
Details: HEK-293 ATXN2-luciferase reporter, luminescence, 24 h; activity change, negative = inhibition: at 57 µM (top of the series)
Outline: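 ATXN2-luciferase reporter cells (luciferase flanked by upstream and downstream ATXN2 gene portions) were treated 24 h at 37 °C with compounds at up to 57 uM. SteadyGlo luminescence gave expression; GF-AFC fluorescence gave viability.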
% is set by controls: 0 for no effect and ±100 for the full control effect; potency is the fitted concentration of half-maximal effect; tags give direction and shape of the fitted curve.

Row | SMILES | activity change, negative = inhibition | Potency
1 | CC(C)(c1ccccc1)c1ccc(OCC(O)CN2CCCC2)cc1 (stereo not given) | inactive: -16.2% | 
2 | Clc1cccc(-c2cc3nc4c(c(N5CCOCC5)n3n2)CCCC4)c1 |  | inconclusive: 35.5 µM [inhibitor, single point]
3 | Cn1ccc2c(N3CCCCCC3)cc3c(c21)C1CCC3C1 (stereo not given) |  | inconclusive: 14.1 µM [inhibitor, partial curve]
4 | O=C(CCl)Nc1cccc(CP(=O)(c2ccccc2)c2ccccc2)c1 |  | inconclusive: 28.2 µM [inhibitor, single point]
5 | C=CCn1c(=NC(=O)c2cc(Cl)sc2Cl)sc2cc(S(N)(=O)=O)ccc21 |  | inconclusive: 20 µM [inhibitor, partial curve]
6 | Cc1nc2ccc(NC(=O)NC(=O)c3c(Cl)cccc3Cl)cc2o1 | inactive: 3.54% | 
7 | Cc1ccccc1NC(=O)c1sc2nc(-c3ccncc3)ccc2c1N |  | active: 20 µM
8 | Cn1c(SCc2ccccc2Cl)nc(C(F)(F)F)cc1=O |  | inconclusive: 12.6 µM [inhibitor, partial curve, poor fit]
9 | Cc1nc2c(OCc3ccc(F)c(F)c3)cccn2c1N(C)C(=O)CCC1CCCC1 |  | inconclusive: 35.5 µM [inhibitor, single point]
10 | CCOC(=O)c1c(C)[nH]c(C(=O)COC(=O)c2c(CC)noc2C)c1C |  | inconclusive: 5.01 µM [inhibitor, partial curve, poor fit]
11 | Cc1ccc2nc(/C(C#N)=C/c3cn[nH]c3-c3ccc(F)cc3)[nH]c2c1 |  | inconclusive: 28.2 µM [inhibitor, single point]
12 | CCN(CC)CC(=O)Nc1ccc2c(c1)Nc1ccccc1CC2 | inactive: -3.31% | 
13 | Cc1ccc(OCC(=O)N/N=C/c2ccc([N+](=O)[O-])o2)cc1 |  | inconclusive: 31.6 µM [inhibitor, partial curve, poor fit]
14 | O=C(CCC(=O)N1CCN(c2ccc(F)cc2)CC1)N1CCN(c2ccc(F)cc2)CC1 |  | inconclusive: 17.8 µM [inhibitor, partial curve, poor fit]
15 | O=C(NNC1=C(C(=O)C(F)(F)F)CCC1)c1cccc(Cl)c1 |  | inconclusive: 28.2 µM [inhibitor, partial curve, poor fit]
16 | COc1cc2cc(C(=O)NCCc3c[nH]c4ccccc34)c(N)nc2cc1OC |  | inconclusive: 28.2 µM [inhibitor, single point]
17 | O=C(NC1CCCCC1)N1CCN(c2nc(-c3ccccc3)cs2)CC1 |  | inconclusive: 37.7 µM [inhibitor, single point]
18 | O=C(Nc1cccc(-c2csc(Nc3ccc(Cl)cc3)n2)c1)c1ccccc1 |  | inconclusive: 39.8 µM [inhibitor, single point]
19 | Cc1cc(NC(=O)c2cccc(S(=O)(=O)N3c4ccccc4CC3C)c2)no1 (stereo not given) |  | inconclusive: 12.6 µM [inhibitor, partial curve, poor fit]
20 | N=c1n(Cc2ccc(Cl)cc2)c2ccccc2n1CC(O)COc1ccccc1 (stereo not given) |  | inconclusive: 28.2 µM [inhibitor, partial curve, poor fit]
21 | O=C(c1ccc(N2CCN(C(=O)c3ccccc3Br)CC2)cc1)c1cccc(F)c1 |  | inconclusive: 39.8 µM [inhibitor, single point]
22 | O=C(NC(=S)NCc1ccccc1)C1CC1 | inactive: -19.5% | 

Row | SMILES | activity change, negative = inhibition | Potency
23 | COc1ccc(N2CCN(c3nc(-c4ccccc4F)nc4ccccc34)CC2)cc1 |  | inconclusive: 22.4 µM [inhibitor, partial curve, poor fit]
24 | CCOC(=O)/C(=C\c1ccccc1)C(=O)CCN1CCOCC1 |  | inconclusive: 37.7 µM [inhibitor, single point]
25 | O=C(Nc1cc(Cl)cc(Cl)c1)c1cccc(OC(F)F)c1 |  | inconclusive: 39.8 µM [inhibitor, partial curve, poor fit]
26 | CC1(C)C(O)=C(c2nc3ccccc3[nH]2)C(=N)N1c1ccccc1 | inactive: -0.135% | 
27 | CC(=O)Nc1ccc(NC(=O)C(C)OC(=O)c2ccc(S(=O)(=O)N3CCCCC3)cc2)cc1 (stereo not given) |  | inconclusive: 31.6 µM [inhibitor, single point]
28 | O=C(CN1CCCc2ccccc21)N/N=C/c1c(O)ccc2ccccc12 |  | inconclusive: 5.62 µM [inhibitor, partial curve]
29 | Cc1ccccc1C(=O)N/N=C/c1ccc([N+](=O)[O-])s1 |  | active: 7.94 µM
30 | COc1cccc(-c2noc(C3CCCN(C(=O)CC(C)(C)C)C3)n2)c1 (stereo not given) | inactive: -0.316% | 
31 | CCN1CCS/C1=C\C=C\C1=[N+](CC)CCS1 |  | inconclusive: 11.9 µM [inhibitor, partial curve, poor fit]
32 | CCN1C(=O)[C@H]2[C@@H](c3ccc(-c4cccc(Cl)c4)cc3)N[C@@](Cc3ccccc3)(C(=O)OC)[C@H]2C1=O | inactive: 4.44% | 
33 | Cc1cccc(C(=O)NC(=S)Nc2ccc3[nH]c(=O)[nH]c3c2)c1 |  | inconclusive: 1.68 µM [inhibitor, single point]
34 | S=C(NCc1ccncc1)NC1CCCC1 |  | inconclusive: 21.2 µM [inhibitor, partial curve, poor fit]
35 | Cc1ccc(NC(=O)Cc2ccc(Cl)cc2)cc1S(=O)(=O)N1CCCCCC1 |  | inconclusive: 28.2 µM [inhibitor, single point]
36 | C[C@H]1CN([C@@H](C)CO)C(=O)Cc2cc(NC(=O)Nc3ccccc3)ccc2O[C@H]1CN(C)Cc1ccccc1 |  | inconclusive: 39.8 µM [inhibitor, single point]
37 | Cc1noc(/C=C/c2cccnc2)c1[N+](=O)[O-] |  | inconclusive: 31.6 µM [inhibitor, single point]
38 | CCOc1ccc2nc(NC(=O)NC3CCCCC3)sc2c1 | inactive: 10.6% | 
39 | Cc1nc(SCC(=O)O)c2oc3ccccc3c2n1 | inactive: -6.1% | 
40 | COc1ccc(COC(=O)C2=C(C)NC(=O)NC2c2ccc(F)cc2)cc1 (stereo not given) | inactive: -23.4% | 
41 | CCOC(=O)c1c(NC(=O)/C=C/C(=O)O)sc(C)c1-c1ccc(F)cc1 |  | inconclusive: 29.9 µM [inhibitor, partial curve, poor fit]
42 | Cc1cc(NC(=O)Nc2ccc(F)cc2F)n(C)n1 |  | inconclusive: 1.19 µM [inhibitor, partial curve, poor fit]
43 | Cc1ccc(Cn2cc(CN3CC(N4CCN(CCO)CC4)CS3(=O)=O)nn2)cc1 (stereo not given) | inactive: 12.8% | 
44 | C/C(CC(=O)NC1CCCC1)=N\NC(=O)C1CCCCC1 | inactive: -9.39% | 

Row | SMILES | activity change, negative = inhibition | Potency
45 | Nc1ccc(C(=O)OCC(=O)Nc2ccc3c(c2)OCO3)cc1[N+](=O)[O-] | inactive: 0.897% | 
46 | O=C(Nc1ccc(Cl)c(Cl)c1)Nc1ccc(Br)cc1F |  | inconclusive: 39.8 µM [inhibitor, single point]
47 | O=C1C=C(N(CCO)Cc2ccccc2)c2ccccc2C1=O |  | active: 26.7 µM
48 | CCN(C(=O)Cn1ncc2c1-c1cc(C)ccc1OC2)c1cc(Cl)ccc1OC |  | inconclusive: 39.8 µM [inhibitor, partial curve, poor fit]
49 | O=[N+]([O-])c1ccc(COc2ccc(-c3[nH]ncc3-c3ccccc3)c(O)c2)cc1 | inactive: -38.5% | 
50 | Cc1cccc(-n2ncc3c2CCCC3NC(=O)CCc2cccnc2)c1C (stereo not given) | inactive: -17.9% | 
51 | N#CCCn1c(-c2nonc2NC(=O)c2ccccc2Cl)nc2ccccc21 |  | inconclusive: 15.8 µM [inhibitor, partial curve, poor fit]
52 | CC1(/[N+]([O-])=C/c2ccccc2F)CCCCC1=O (stereo not given) |  | inconclusive: 0.752 µM [inhibitor, partial curve, poor fit]
53 | O=C(C[C@H]1C/C=C\CC[C@H](Cc2ccc(F)cc2)C(=O)O[C@H](c2ccccc2)CNC1=O)N[C@H](CO)Cc1ccccc1 |  | inconclusive: 39.8 µM [inhibitor, partial curve, poor fit]
54 | Cc1ccc(CN2CCC(c3cc(-c4ccc(Cl)cc4)n[nH]3)CC2)cc1 |  | active: 20 µM
55 | COc1ccc(NC(=O)c2ccc3c(c2)CCN3S(=O)(=O)c2ccc(C)cc2)cc1Cl | inactive: 2.92% | 
56 | COc1ccc(-c2c([C@H]3[C@@H]4C=CCC[C@@]4(C)C(=O)N3Cc3ccccc3)ccc3ccccc23)cc1OC |  | inconclusive: 39.8 µM [inhibitor, single point]
57 | CN1CCCC(n2nc(Cc3ccc(Cl)cc3)c3ccccc3c2=O)CC1 (stereo not given) |  | active: 35.5 µM and inconclusive: 25.1 µM [inhibitor, single point]
58 | C[C@H](NC(=O)c1ccc(Cl)cc1)C(=O)OCn1nnc2ccccc2c1=O |  | inconclusive: 6.31 µM [inhibitor, single point]
59 | Cc1ccc(NC(=O)CCl)cc1S(=O)(=O)N1CCCCCC1 |  | inconclusive: 23.8 µM [inhibitor, single point]
60 | O=C(NC1(Cc2ccccc2)CCN(Cc2ccc(-c3ccccc3)cc2)C1=O)c1ccccc1 (stereo not given) |  | inconclusive: 35.5 µM [inhibitor, single point]
61 | Cc1nc2c(OCCC3CCCCC3)cccn2c1N(C)C(=O)CCC1CCCC1 |  | inconclusive: 35.5 µM [inhibitor, single point]
62 | CCCCn1nnnc1C(c1ccccc1)N1CCN(c2c(Cl)cncc2Cl)CC1 (stereo not given) |  | inconclusive: 25.1 µM [inhibitor, single point]
63 | CCOC(=O)c1nnc2cc(-c3ccccc3)nn2c1C | inactive: 4.87% | 
64 | CCCCCCOC(=O)C(C#N)c1nc2ccccc2nc1N1CCN(C)CC1 (stereo not given) |  | inconclusive: 28.2 µM [inhibitor, partial curve]
65 | Cc1ccc(S(=O)(=O)N2C[C@@H]3CCCC[C@@H]3[C@@H](C)[C@H]2c2cn(Cc3ccccc3)c3ccc(F)cc23)cc1 |  | inconclusive: 3.55 µM [inhibitor, partial curve, poor fit]
